Measurements as given in PubChem BioAssay AID1346428 (National Center for Advancing Translational Sciences (NCATS), 2018).
In all, about 48,000 compounds went through this assay and about 1,200 (2.5%) were called active. Roughly 2% stayed inconclusive and do not appear here.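 The calls were made as follows: active = activation of at least 60% and not above a set upper limit (about 1 call in 100 departs from these limits); inconclusive = activation of 40% to 60%, or above that upper limit; inactive = activation under 40%.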 The list shows a part of the results.

What follows are compounds tested against Probable G-protein coupled receptor 32 (Homo sapiens) (UniProt O75388) (assay: qHTS for Agonists of Human Resolvin D1 Receptor DRV1). Settings: CHO-K1 GPR32 beta-arrestin PathHunter luminescence, 90 min; at 76.9 µM; stronger effect = higher value; zero percent set by DMSO-only wells.
Summary of the method: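 GPR32 activation in stably transfected CHO-K1 cells, detected as beta-arrestin recruitment by enzyme-fragment complementation. Compound exposure: 90 min, 37 °C.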
Also: 0% is about no effect.

Chain of UniProt O75388 (O75388 whole entry, looked up, the tested form may be a part): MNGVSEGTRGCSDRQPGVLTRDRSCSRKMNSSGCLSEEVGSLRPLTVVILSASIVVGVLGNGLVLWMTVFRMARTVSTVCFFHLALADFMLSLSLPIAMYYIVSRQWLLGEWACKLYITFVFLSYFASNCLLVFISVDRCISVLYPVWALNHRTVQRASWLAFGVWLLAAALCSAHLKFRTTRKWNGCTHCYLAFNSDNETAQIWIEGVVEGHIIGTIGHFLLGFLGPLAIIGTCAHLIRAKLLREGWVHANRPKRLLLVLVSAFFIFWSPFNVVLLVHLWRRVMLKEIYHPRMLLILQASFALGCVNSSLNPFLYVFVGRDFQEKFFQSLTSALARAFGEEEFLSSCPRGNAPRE

Row | Structure (SMILES) | activation
1 | Cc1cc(C)c2c(NC(=O)c3ccccc3Cl)c(C(=O)NCc3ccc(Cl)cc3)sc2n1 | inactive: -1.97%
2 | Cc1ccc(CN(Cc2cccn2-c2nnc(N3CCCC3=O)s2)C(=O)Nc2ccccc2Cl)cc1 | inactive: -23.1%
3 | Cc1cc(Nc2cc(Cl)ccc2C)n2nc(-c3ccccc3)nc2n1 | inactive: 9.96%
4 | CC(=O)c1cccc(NC(=O)Cn2ccn3nc(-c4ccccc4)cc3c2=O)c1 | inactive: -1.59%
5 | CCOC(=O)c1c(N)n(-c2ccc(OCC)cc2)c2nc3ccccc3nc12 | inactive: 4.42%
6 | Cc1c(CC(=O)NCCc2ccccc2)c(=O)oc2c(C)c3occ(C(C)(C)C)c3cc12 | inactive: -18.9%
7 | COc1ccc(OCCCn2c(C3CC(=O)N(c4ccc(F)cc4)C3)nc3ccccc32)cc1 (stereo not drawn) | inactive: 1.68%
8 | CCOC(=O)c1c(C)[nH]c(CCC(=O)NCc2ccc(OC)cc2OC)c1C | inactive: -13.1%
9 | Cc1nc2c(-c3ccc(F)cc3)c(C)nn2c(C)c1CCC(=O)NCc1ccc(F)cc1 | inactive: -3.35%
10 | COc1ccc(OC)c(-c2noc(N3CCN(c4cccc(C(F)(F)F)c4)CC3)n2)c1 | inactive: 9.64%
11 | CCCCC1=NC2(CCCC2)C(=O)N1Cc1ccc(-c2ccccc2-c2nn[nH]n2)cc1 | inactive: -25.4%
12 | COc1ccc(NC(=O)c2nnn(-c3ccc(C(C)C)cc3)c2C)c(OC)c1 | inactive: 21.6%
13 | CC(C)CCNC(=O)c1cc(-c2cccnc2)nc2ccc(S(=O)(=O)N3CCC(C)CC3)cc12 | inactive: -8.44%
14 | O=C(CSc1nc2c([nH]c3ccccc32)c(=O)n1-c1ccccc1)N1CCCCC1 | inactive: -13.4%
15 | CCOc1ccc(-c2cc(C(=O)NCCc3ccc(C)cc3)c3ccccc3n2)cc1 | inactive: 33.2%
16 | Cc1cccc(-n2c3nc(=O)[nH]c(=O)c-3cc3ccc(Cl)cc32)c1C | inactive: 1.7%
17 | CCOc1cccc2sc(N3CCN(C(=O)c4ccco4)CC3)nc12 | inactive: -16.7%
18 | Cn1c(CN2CCOCC2)nc2cc(NC(=O)c3ccccc3[N+](=O)[O-])ccc21 | inactive: -5.13%
19 | O=C(NCCCN1CCN(c2ccc(F)cc2)CC1)Nc1ccccc1Cl | inactive: 29.7%
20 | COc1cc(OC)c(NC(=O)c2ccc(-n3cnc4cccnc43)cc2)cc1Cl | inactive: 15.4%
21 | CCOC(=O)CC(NC(=O)Cn1nnc(-c2ccc(Cl)cc2)n1)c1ccc(OC)cc1 (stereo not drawn) | inactive: 1.73%
22 | COc1ccc(-n2ncc3c2ncn2nc(-c4ccc(OC)c(OC)c4)nc32)cc1 | inactive: -23.5%
23 | CC1=C(C(=O)Nc2ccccc2)C(c2ccc(Br)cc2)n2nc(CCCO)nc2N1 (stereo not drawn) | inactive: -1.86%
24 | Cn1ccc2cc(S(=O)(=O)N3CCCC(C(=O)NCc4ccccc4F)C3)ccc21 (stereo not drawn) | inactive: 37.4%
25 | Cc1ccccc1-c1nc(CNC(=O)NC2CCCCC2)c(C)o1 | inactive: 4.13%
26 | CCCCN(CCCC)CCCNC(=O)c1cc(-c2ccc(Cl)s2)nc2ccccc12 | inactive: -8.57%
27 | CC(C)c1ccc(C2CC(=O)N3CN(C4CCCCC4)CSC3=C2C#N)cc1 (stereo not drawn) | inactive: -9.08%

Row | Structure (SMILES) | activation
28 | COc1ccccc1N1CCN(C(=O)c2nn(C)c3c2CS(=O)(=O)c2ccccc2-3)CC1 | inactive: -4.08%
29 | CCCc1cc(=O)[nH]c(Nc2cc(Cl)cc(Cl)c2)n1 | active: 98.5%
30 | O[C@@H](COc1cccc2ncccc12)CN1CCN(C2c3ccccc3[C@@H]3[C@H](c4ccccc42)C3(F)F)CC1 (stereo partly drawn) | inactive: 7.87%
31 | CCn1cc2nc(SCc3cc(C)ccc3C)n(Cc3ccc(Cl)cc3)c(=O)c2n1 | inactive: -21.7%
32 | CCN(CC)c1ccc(CN(C(=O)c2cc(=O)c3ccccc3o2)C2CCS(=O)(=O)C2)cc1 (stereo not drawn) | inactive: -31.9%
33 | COc1cccc(CNC(=O)CN2C(=O)COc3ccc(S(=O)(=O)N4CCCCC4)cc32)c1 | inactive: -5.7%
34 | Cn1cc(S(=O)(=O)N2CCCC2)cc1C(=O)Nc1ccc(F)cc1F | inactive: -6.84%
35 | CCOC(=O)c1ccc(NC(=O)Cc2noc3ccc(C)cc23)cc1 | inactive: -4.82%
36 | Cc1ccc(CNC(=O)CCCCCn2c(=O)c3sccc3n(CC(=O)N3CCCCC3C)c2=O)cc1 (stereo not drawn) | inactive: 9.54%
37 | O=C(CCCCCn1c(=O)[nH]c2ccccc2c1=O)N1CCN(c2cccc(C(F)(F)F)c2)CC1 | inactive: -9.92%
38 | O=C(C1CCN(S(=O)(=O)c2cccs2)CC1)N1CCN(c2ccccc2F)CC1 | inactive: 2.88%
39 | CCCCC12CN3CC(C)(CN(C1)C3c1ccc(OCc3ccccc3)cc1)C2=O (stereo not drawn) | inactive: -1.66%
40 | CC1=C(C(=O)Nc2ccccc2Br)C2(CCC(C)CC2)OC1=O (stereo not drawn) | inactive: 2.78%
41 | Cc1ccc(-c2nc3sc(CCNC(=O)c4ccc(F)c(F)c4)c(C)n3n2)cc1 | inactive: 0.896%
42 | C[C@H](NC(=O)/C(C#N)=C/c1ccc(O)c(O)c1)c1ccccc1 | inactive: -26.9%
43 | CNC(=O)c1c(I)c(NC(C)=O)c(I)c(C(=O)O)c1I | inactive: 30.3%
44 | CCN(C(=O)Cn1c(C(=O)OC)cc2sccc21)c1cccc(C)c1 | inactive: -22.6%
45 | Cc1ccccc1NC(=O)c1sc2nc(-c3cc4ccccc4oc3=O)[nH]c(=O)c2c1C | inactive: -12.5%
46 | Cc1nc(-c2ccc(S(=O)(=O)N3CCN(c4ccccc4F)CC3)cc2)co1 | inactive: 27.8%
47 | CCC(CC)C(=O)Nc1ccc(S(=O)(=O)N2CCC(c3nc4ccccc4s3)CC2)cc1 | inactive: 4.34%
48 | FC(F)(F)c1cccc(Nc2nc3nonc3nc2Nc2ccc(Cl)cc2)c1 | inactive: -23.3%
49 | COc1ccc(C)cc1NC(=O)CN(C)S(=O)(=O)c1ccc2c(c1)c(=O)n(C)c(=O)n2C | inactive: 5.98%
50 | Cc1ccccc1NC(=O)c1c(C)oc2ccc(O)c(CN3CCCCCC3)c12 | inactive: -16.1%
51 | CC(C)NC(=O)c1ccc(CSc2nc3ccncc3n2Cc2cccc(F)c2)cc1 | inactive: 22.1%
52 | CCCn1cc(S(=O)(=O)c2ccc(C)c(C)c2)c(=O)c2cc(F)c(N3CCCCC3)cc21 | inactive: -4.99%
53 | CCn1cc2nc(SCC(=O)Nc3ccc(OC)c(Cl)c3)n(Cc3ccc(OC)cc3)c(=O)c2n1 | inactive: -1.75%
